# Assay results as given in the supplement of paper PMC8728848.
# Some of the results follow.
# B1: MIC4-A5 (Toxoplasma gondii), Q9XZH7 (protein)
# chain: SPDFHDEVECVHTGNIGSKAQTIGEVKRASSLSECRARCQAEKECSHYTYNVKSGLCYPKRGKPQFYKYLGDMTGSRTCDTS
# Columns and labels:
# Assay in all cases: glycan array binding signal (z-score within array); higher = stronger binding
# Details in all cases: glycan notation: IUPAC condensed, linker removed
# [1] = biological target: Gal(b1-3)GlcNAc(b1-3)Gal(b1-4)[Fuc(a1-3)]GlcNAc(b1-3)Gal(b1-4)Glc
# How it was run: (§1)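 Arrays were curated from the Consortium for Functional Glycomics database, 3228 in total, and kept only where the protein sequence was available. Binding is expressed as a within-array Z-score. This score was averaged across arrays of the same protein sequence at different concentrations or buffers and across linkers, and negative values can be read as non-binding.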
# [2] = biological target: Gal(b1-3)GlcNAc(b1-3)Gal(b1-4)[Fuc(a1-3)]GlcNAc(b1-6)[Gal(b1-3)GlcNAc(b1-3)]Gal(b1-4)Glc
# How it was run: as §1
# [3] = biological target: Gal(b1-3)GlcNAc(b1-3)[Fuc(a1-3)[Gal(b1-4)]GlcNAc(b1-6)]Gal(b1-4)Glc
# How it was run: as §1
# [4] = biological target: Gal(b1-3)GlcNAc(b1-3)[Fuc(a1-3)[Gal(b1-4)]GlcNAc(b1-6)]Gal(b1-4)]GlcNAc(b1-6)[Gal(b1-4)]GlcNAc(b1-3)]Gal(b1-4)Glc
# How it was run: as §1
# [5] = biological target: Gal(b1-3)GlcNAc(b1-3)[Gal(b1-4)GlcNAc(b1-6)]Gal(b1-4)Glc
# How it was run: as §1
# [6] = biological target: Gal(b1-3)GlcNAc(b1-3)[Gal(b1-4)GlcNAc(b1-6)]Gal(b1-4)GlcNAc(b1-6)[Gal(b1-3)GlcNAc(b1-3)]Gal(b1-4)Glc
# How it was run: as §1
# [7] = biological target: Gal(b1-3)[Fuc(a1-4)]GlcNAc
# How it was run: as §1
# [8] = biological target: Gal(b1-3)[Fuc(a1-4)]GlcNAc(b1-3)Gal(b1-4)Glc
# How it was run: as §1
# [9] = biological target: Gal(b1-3)[Fuc(a1-4)]GlcNAc(b1-3)Gal(b1-4)[Fuc(a1-3)]Glc
# How it was run: as §1
# [10] = biological target: Gal(b1-3)[Fuc(a1-4)]GlcNAc(b1-3)Gal(b1-4)[Fuc(a1-3)]GlcNAc(b1-3)Gal(b1-4)Glc
# How it was run: as §1
# [11] = biological target: Gal(b1-3)[Fuc(a1-4)]GlcNAc(b1-3)Gal(b1-4)[Fuc(a1-3)]GlcNAc(b1-6)[Gal(b1-3)[Fuc(a1-4)]GlcNAc(b1-3)]Gal(b1-4)Glc
# How it was run: as §1
# [12] = biological target: Gal(b1-3)[Fuc(a1-4)]GlcNAc(b1-3)[Fuc(a1-3)[Gal(b1-4)]GlcNAc(b1-6)]Gal(b1-4)Glc
# How it was run: as §1
# [13] = biological target: Gal(b1-3)[Neu5Ac(a2-6)]GalNAc(b1-4)Gal(b1-4)Glc
# How it was run: as §1
# [14] = biological target: Gal(b1-3)[Neu5Ac(a2-6)]GlcNAc(b1-3)Gal(b1-4)Glc
# How it was run: as §1
# Gal(b1-4)Glc = biological target: Gal(b1-4)Glc
# How it was run: as §1
# Gal(b1-4)GlcNAc = biological target: Gal(b1-4)GlcNAc
# How it was run: as §1
# [15] = biological target: Gal(b1-4)GlcNAc(b1-2)Man(a1-3)[Gal(b1-4)GlcNAc(b1-2)Man(a1-6)]Man(b1-4)GlcNAc(b1-4)GlcNAc
# How it was run: as §1
# [16] = biological target: Gal(b1-4)GlcNAc(b1-2)Man(a1-3)[Gal(b1-4)GlcNAc(b1-2)Man(a1-6)]Man(b1-4)GlcNAc(b1-4)[Fuc(a1-6)]GlcNAc
# How it was run: as §1
# [17] = biological target: Gal(b1-4)GlcNAc(b1-2)Man(a1-3)[Gal(b1-4)GlcNAc(b1-2)Man(a1-6)][GlcNAc(b1-4)]Man(b1-4)GlcNAc(b1-4)[Fuc(a1-6)]GlcNAc
# How it was run: as §1
# [18] = biological target: Gal(b1-4)GlcNAc(b1-2)Man(a1-3)[Man(a1-6)]Man(b1-4)GlcNAc(b1-4)GlcNAc
# How it was run: as §1
# [19] = biological target: Gal(b1-4)GlcNAc(b1-2)Man(a1-6)[GlcNAc(b1-2)Man(a1-3)]Man(b1-4)GlcNAc(b1-4)[Fuc(a1-6)]GlcNAc
# How it was run: as §1
# [20] = biological target: Gal(b1-4)GlcNAc(b1-2)Man(a1-6)[Man(a1-3)]Man(b1-4)GlcNAc(b1-4)GlcNAc
# How it was run: as §1
# [21] = biological target: Gal(b1-4)GlcNAc(b1-2)Man(a1-6)[Man(a1-3)]Man(b1-4)GlcNAc(b1-4)[Fuc(a1-6)]GlcNAc
# How it was run: as §1
# [22] = biological target: Gal(b1-4)GlcNAc(b1-2)[Gal(b1-4)GlcNAc(b1-4)]Man(a1-3)[Fuc(a1-3)[Gal(b1-4)]GlcNAc(b1-2)Man(a1-6)]Man(b1-4)GlcNAc(b1-4)GlcNAc
# How it was run: as §1
# [23] = biological target: Gal(b1-4)GlcNAc(b1-2)[Gal(b1-4)GlcNAc(b1-4)]Man(a1-3)[Gal(b1-4)GlcNAc(b1-2)Man(a1-6)]Man(b1-4)GlcNAc(b1-4)GlcNAc
# How it was run: as §1
# [24] = biological target: Gal(b1-4)GlcNAc(b1-2)[Gal(b1-4)GlcNAc(b1-4)]Man(a1-3)[Gal(b1-4)GlcNAc(b1-2)[Gal(b1-4)GlcNAc(b1-6)]Man(a1-6)]Man(b1-4)GlcNAc(b1-4)GlcNAc
# How it was run: as §1
# Gal(b1-4)GlcNAc(b1-3)Fuc = biological target: Gal(b1-4)GlcNAc(b1-3)Fuc
# How it was run: as §1
# [25] = biological target: Gal(b1-4)GlcNAc(b1-3)Gal(b1-4)Glc
# How it was run: as §1
# [26] = biological target: Gal(b1-4)GlcNAc(b1-3)Gal(b1-4)GlcNAc(b1-3)Gal(b1-4)Glc
# How it was run: as §1
# [27] = biological target: Gal(b1-4)GlcNAc(b1-3)[Fuc(a1-3)[Gal(b1-4)]GlcNAc(b1-6)]Gal(b1-4)Glc
# How it was run: as §1
# [28] = biological target: Gal(b1-4)GlcNAc(b1-3)[Gal(b1-4)GlcNAc(b1-6)]Gal(b1-4)Glc
# How it was run: as §1
# [29] = biological target: Gal(b1-4)GlcNAc(b1-3)[Gal(b1-4)GlcNAc(b1-6)]Gal(b1-4)GlcNAc(b1-3)Gal(b1-4)Glc
# How it was run: as §1
# [30] = biological target: Gal(b1-4)GlcNAc(b1-3)[Gal(b1-4)GlcNAc(b1-6)]Gal(b1-4)GlcNAc(b1-3)[Gal(b1-4)GlcNAc(b1-6)]Gal(b1-4)GlcNAc(b1-3)Gal(b1-4)Glc
# How it was run: as §1
# [31] = biological target: Gal(b1-4)GlcNAc(b1-3)[Gal(b1-4)GlcNAc(b1-6)]Gal(b1-4)GlcNAc(b1-3)[Gal(b1-4)GlcNAc(b1-6)]Gal(b1-4)GlcNAc(b1-3)[Gal(b1-4)GlcNAc(b1-6)]Gal(b1-4)GlcNAc(b1-3)Gal(b1-4)Glc
# How it was run: as §1
# [32] = biological target: Gal(b1-4)GlcNAc(b1-3)[Gal(b1-4)GlcNAc(b1-6)]Gal(b1-4)GlcNAc(b1-3)[Gal(b1-4)GlcNAc(b1-6)]Gal(b1-4)GlcNAc(b1-3)[Gal(b1-4)GlcNAc(b1-6)]Gal(b1-4)GlcNAc(b1-3)[Gal(b1-4)GlcNAc(b1-6)]Gal(b1-4)GlcNAc(b1-3)Gal(b1-4)Glc
# How it was run: as §1
# Gal(b1-6)GalNAc = biological target: Gal(b1-6)GalNAc
# How it was run: as §1
# [33] = biological target: Gal3S(b1-3)GalNAc(b1-4)Gal3S(b1-4)Glc
# How it was run: as §1
# [34] = biological target: Gal3S(b1-3)[Fuc(a1-4)]GlcNAc
# How it was run: as §1
# [35] = biological target: Gal3S(b1-3)[Fuc(a1-4)]GlcNAc(b1-3)Gal(b1-4)Glc
# How it was run: as §1
# Gal3S(b1-4)Glc = biological target: Gal3S(b1-4)Glc
# How it was run: as §1
# Gal3S(b1-4)GlcNAc = biological target: Gal3S(b1-4)GlcNAc
# How it was run: as §1
# [36] = biological target: Gal3S(b1-4)GlcNAc(b1-3)Gal
# How it was run: as §1
# [37] = biological target: Gal6S(b1-3)[Fuc(a1-4)]GlcNAc(b1-3)Gal(b1-4)Glc
# How it was run: as §1
# GalNAc(a1-3)Gal(b1-4)Glc = biological target: GalNAc(a1-3)Gal(b1-4)Glc
# How it was run: as §1
# GalNAc(a1-3)GalNAc = biological target: GalNAc(a1-3)GalNAc
# How it was run: as §1
binder,measurement,setting,value
B1,glycan array binding signal (z-score),[1],0.553
same,glycan array binding signal (z-score),[2],1.67
same,glycan array binding signal (z-score),[3],0.767
same,glycan array binding signal (z-score),[4],0.557
same,glycan array binding signal (z-score),[5],1.51
same,glycan array binding signal (z-score),[6],0.677
same,glycan array binding signal (z-score),[7],1.21
same,glycan array binding signal (z-score),[8],-0.323
same,glycan array binding signal (z-score),[9],-0.322
same,glycan array binding signal (z-score),[10],-0.323
same,glycan array binding signal (z-score),[11],-0.32
same,glycan array binding signal (z-score),[12],-0.318
same,glycan array binding signal (z-score),[13],6.12
same,glycan array binding signal (z-score),[14],3.02
same,glycan array binding signal (z-score),Gal(b1-4)Glc,0.652
same,glycan array binding signal (z-score),Gal(b1-4)GlcNAc,2.85
same,glycan array binding signal (z-score),[15],1.17
same,glycan array binding signal (z-score),[16],1.44
same,glycan array binding signal (z-score),[17],1.3
same,glycan array binding signal (z-score),[18],0.343
same,glycan array binding signal (z-score),[19],0.166
same,glycan array binding signal (z-score),[20],1.67
same,glycan array binding signal (z-score),[21],0.269
same,glycan array binding signal (z-score),[22],0.498
same,glycan array binding signal (z-score),[23],3.22
same,glycan array binding signal (z-score),[24],2.28
same,glycan array binding signal (z-score),Gal(b1-4)GlcNAc(b1-3)Fuc,-0.248
same,glycan array binding signal (z-score),[25],0.717
same,glycan array binding signal (z-score),[26],0.444
same,glycan array binding signal (z-score),[27],1.54
same,glycan array binding signal (z-score),[28],1.51
same,glycan array binding signal (z-score),[29],0.578
same,glycan array binding signal (z-score),[30],0.447
same,glycan array binding signal (z-score),[31],0.059
same,glycan array binding signal (z-score),[32],0.203
same,glycan array binding signal (z-score),Gal(b1-6)GalNAc,1.93
same,glycan array binding signal (z-score),[33],-0.323
same,glycan array binding signal (z-score),[34],-0.322
same,glycan array binding signal (z-score),[35],-0.323
same,glycan array binding signal (z-score),Gal3S(b1-4)Glc,-0.323
same,glycan array binding signal (z-score),Gal3S(b1-4)GlcNAc,-0.321
same,glycan array binding signal (z-score),[36],-0.323
same,glycan array binding signal (z-score),[37],-0.323
same,glycan array binding signal (z-score),GalNAc(a1-3)Gal(b1-4)Glc,-0.323
same,glycan array binding signal (z-score),GalNAc(a1-3)GalNAc,-0.319
